The other results are listed elsewhere or left out. Most values come without repeats; read them as rough.
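Also: cell number obtained by counting DAPI-stained nuclei in high-throughput microscope images with image analysis software, screen run in 1,536-well plates.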

The test system of the test is A375. Description: cell count relative to DMSO control; melanoma cells; higher = more viable cells. To be noted: library dose: low library concentration; 72 h.
For `CC1(C)CCC(c2ccc(Cl)cc2)=C(CN2CCN(c3ccc(C(=O)NS(=O)(=O)c4ccc(N[C@H](CCN5CCOCC5)CSc5ccccc5)c(S(=O)(=O)C(F)(F)F)c4)cc3)CC2)C1` + CC1(C)NC(=O)N(c2ccc([N+](=O)[O-])c(C(F)(F)F)c2)C1=O [nilutamide] (first compound 0.4 µM, partner dose 1 µM), the cell count came out at 77.1%.
Consider `CC1(C)CCC(c2ccc(Cl)cc2)=C(CN2CCN(c3ccc(C(=O)NS(=O)(=O)c4ccc(N[C@H](CCN5CCOCC5)CSc5ccccc5)c(S(=O)(=O)C(F)(F)F)c4)cc3)CC2)C1` + Nc1ncn([C@H]2C[C@H](O)[C@@H](CO)O2)c(=O)n1 [decitabine] (first compound 0.4 µM, partner dose 0.1 µM), for which the cell count is 68.4%.
With `CC1(C)CCC(c2ccc(Cl)cc2)=C(CN2CCN(c3ccc(C(=O)NS(=O)(=O)c4ccc(N[C@H](CCN5CCOCC5)CSc5ccccc5)c(S(=O)(=O)C(F)(F)F)c4)cc3)CC2)C1` + CO[C@H]1C[C@@H]2CC[C@@H](C)[C@@](O)(O2)C(=O)C(=O)N2CCCC[C@H]2C(=O)O[C@H]([C@H](C)C[C@@H]2CC[C@@H](OCCO)[C@H](OC)C2)CC(=O)[C@H](C)/C=C(\C)[C@@H](O)[C@@H](OC)C(=O)[C@H](C)C[C@H](C)/C=C/C=C/C=C/1C [everolimus] (first compound 0.4 µM, partner dose 0.02 µM) the figure was 43.6%.
With `O=C(/C=C/c1cccnc1)NCCCCC1CCN(C(=O)c2ccccc2)CC1` + Nc1cccc2c1CN(C1CCC(=O)NC1=O)C2=O [lenalidomide] (first compound 0.01 µM, partner dose 1 µM) the figure was 76.4%.
The compound `Cc1ccc(Nc2nccc(N(C)c3ccc4c(C)n(C)nc4c3)n2)cc1S(N)(=O)=O` [Pazopanib] + OCCn1cc(-c2cnc3nnn(Cc4ccc5ncccc5c4)c3n2)cn1 [PF04217903] (first compound 0.4 µM, partner dose 1 µM) displayed a cell count of 108%.
`O=C(/C=C/c1cccnc1)NCCCCC1CCN(C(=O)c2ccccc2)CC1` + C[C@@H]1CCN(C(=O)CC#N)C[C@@H]1N(C)c1ncnc2[nH]ccc12 [CP690550] (first compound 0.01 µM, partner dose 1 µM) came in with a cell count of 97.9%.
`Cc1ccc(Nc2nccc(N(C)c3ccc4c(C)n(C)nc4c3)n2)cc1S(N)(=O)=O` [Pazopanib] + C#Cc1cccc(Nc2ncnc3cc(OCCOC)c(OCCOC)cc23)c1 [erlotinib] (first compound 0.4 µM, partner dose 0.8 µM) came in with a cell count of 89.1%.
Compound `O=C(/C=C/c1cccnc1)NCCCCC1CCN(C(=O)c2ccccc2)CC1` + O=C(O)c1ccc(-c2c[nH]c3ncc(-c4ccccc4)cc23)cc1C1CCCC1 [GSK650394] (first compound 0.01 µM, partner dose 0.16 µM) returned a cell count of 86.2%.
With `O=C(/C=C/c1cccnc1)NCCCCC1CCN(C(=O)c2ccccc2)CC1` + COc1ccc(Cl)c(Nc2nc3ccccc3nc2NS(=O)(=O)c2cccc(NC(=O)C(C)(C)N)c2)c1 [XL147] (first compound 0.01 µM, partner dose 0.8 µM) the figure was 124%.
With `O=C(/C=C/c1cccnc1)NCCCCC1CCN(C(=O)c2ccccc2)CC1` + C=CCNC1=C2C[C@@H](C)C[C@H](OC)[C@H](O)[C@@H](C)/C=C(\C)[C@H](OC(N)=O)[C@@H](OC)/C=C\C=C(/C)C(=O)NC(=CC1=O)C2=O [Tanespimycin] (first compound 0.01 µM, partner dose 0.002 µM), the cell count turned out to be 107%.
The compound `Cc1ccc(Nc2nccc(N(C)c3ccc4c(C)n(C)nc4c3)n2)cc1S(N)(=O)=O` [Pazopanib] + Nc1ncn([C@H]2C[C@H](O)[C@@H](CO)O2)c(=O)n1 [decitabine] (first compound 0.4 µM, partner dose 0.1 µM) gave a cell count of 95.3%.
On to `CC1(C)CCC(c2ccc(Cl)cc2)=C(CN2CCN(c3ccc(C(=O)NS(=O)(=O)c4ccc(N[C@H](CCN5CCOCC5)CSc5ccccc5)c(S(=O)(=O)C(F)(F)F)c4)cc3)CC2)C1` + C=C(c1ccc(C(=O)O)cc1)c1cc2c(cc1C)C(C)(C)CCC2(C)C [Bexarotene] (first compound 0.4 µM, partner dose 2 µM), for which the cell count turned out to be 75.7%.
On to `O=C(/C=C/c1cccnc1)NCCCCC1CCN(C(=O)c2ccccc2)CC1` + C[C@@H](Oc1cc(-c2cnn(C3CCNCC3)c2)cnc1N)c1c(Cl)ccc(F)c1Cl [Crizotinib] (first compound 0.01 µM, partner dose 0.2 µM), for which the cell count stood at 101%.
In turn, `CC1(C)CCC(c2ccc(Cl)cc2)=C(CN2CCN(c3ccc(C(=O)NS(=O)(=O)c4ccc(N[C@H](CCN5CCOCC5)CSc5ccccc5)c(S(=O)(=O)C(F)(F)F)c4)cc3)CC2)C1` + CCCCCCCCc1ccc(CCC(N)(CO)CO)cc1 [fingolimod] (first compound 0.4 µM, partner dose 2 µM) displayed a cell count of 36%.
As to `CC1(C)CCC(c2ccc(Cl)cc2)=C(CN2CCN(c3ccc(C(=O)NS(=O)(=O)c4ccc(N[C@H](CCN5CCOCC5)CSc5ccccc5)c(S(=O)(=O)C(F)(F)F)c4)cc3)CC2)C1` + Cn1cncc1[C@@](N)(c1ccc(Cl)cc1)c1ccc2c(c1)c(-c1cccc(Cl)c1)cc(=O)n2C [tipifarnib] (first compound 0.4 µM, partner dose 0.01 µM), the cell count stood at 47%.
For `O=C(/C=C/c1cccnc1)NCCCCC1CCN(C(=O)c2ccccc2)CC1` + Cn1sc(=O)n(Cc2ccccc2)c1=O [TDZD-8] (first compound 0.01 µM, partner dose 0.4 µM), the cell count turned out to be 87.6%.
With `Cc1ccc(Nc2nccc(N(C)c3ccc4c(C)n(C)nc4c3)n2)cc1S(N)(=O)=O` [Pazopanib] + CS(=O)(=O)c1ccc(C(=O)Nc2ccc(Cl)c(-c3ccccn3)c2)c(Cl)c1 [vismodegib] (first compound 0.4 µM, partner dose 1 µM) the figure was 99.2%; with `O=C(/C=C/c1cccnc1)NCCCCC1CCN(C(=O)c2ccccc2)CC1` + CN(C)S(=O)(=O)c1ccc2c(c1)/C(=C/c1cc3c([nH]1)CCCC3)C(=O)N2 [SU6656] (first compound 0.01 µM, partner dose 0.4 µM), 107%.
The compound `O=C(/C=C/c1cccnc1)NCCCCC1CCN(C(=O)c2ccccc2)CC1` + COc1cc(Nc2ncc(F)c(Nc3ccc4c(n3)NC(=O)C(C)(C)O4)n2)cc(OC)c1OC [Tamatinib] (first compound 0.01 µM, partner dose 0.4 µM) displayed a cell count of 71.8%.
For `CC1(C)CCC(c2ccc(Cl)cc2)=C(CN2CCN(c3ccc(C(=O)NS(=O)(=O)c4ccc(N[C@H](CCN5CCOCC5)CSc5ccccc5)c(S(=O)(=O)C(F)(F)F)c4)cc3)CC2)C1` + O=C(O)c1ccc2c(c1)nc(Nc1cccc(Cl)c1)c1ccncc12 [CX4945] (first compound 0.4 µM, partner dose 0.4 µM), the cell count worked out at 75%.
Consider `Cc1ccc(Nc2nccc(N(C)c3ccc4c(C)n(C)nc4c3)n2)cc1S(N)(=O)=O` [Pazopanib] + C[C@@H]1CCN(C(=O)CC#N)C[C@@H]1N(C)c1ncnc2[nH]ccc12 [CP690550] (first compound 0.4 µM, partner dose 1 µM), for which the cell count amounted to 90.6%.
With `Cc1ccc(Nc2nccc(N(C)c3ccc4c(C)n(C)nc4c3)n2)cc1S(N)(=O)=O` [Pazopanib] + Nc1nc(F)nc2c1ncn2[C@@H]1O[C@H](CO)[C@@H](O)[C@@H]1O [fludarabine] (first compound 0.4 µM, partner dose 0.2 µM) the figure was 23%; with `O=C(/C=C/c1cccnc1)NCCCCC1CCN(C(=O)c2ccccc2)CC1` + Cn1nnc2c(C(N)=O)ncn2c1=O [temozolomide] (first compound 0.01 µM, partner dose 2 µM), 101%; with `O=C(/C=C/c1cccnc1)NCCCCC1CCN(C(=O)c2ccccc2)CC1` + CO[C@H]1C[C@@H]2CC[C@@H](C)[C@@](O)(O2)C(=O)C(=O)N2CCCC[C@H]2C(=O)O[C@H]([C@H](C)C[C@@H]2CC[C@@H](OCCO)[C@H](OC)C2)CC(=O)[C@H](C)/C=C(\C)[C@@H](O)[C@@H](OC)C(=O)[C@H](C)C[C@H](C)/C=C/C=C/C=C/1C [everolimus] (first compound 0.01 µM, partner dose 0.02 µM), 51.8%.
With `O=C(/C=C/c1cccnc1)NCCCCC1CCN(C(=O)c2ccccc2)CC1` + CN(c1ncccc1CNc1nc(Nc2ccc3c(c2)CC(=O)N3)ncc1C(F)(F)F)S(C)(=O)=O [PF562271] (first compound 0.01 µM, partner dose 0.08 µM) the figure was 71.6%.
With `Cc1ccc(Nc2nccc(N(C)c3ccc4c(C)n(C)nc4c3)n2)cc1S(N)(=O)=O` [Pazopanib] + C[C@]1(c2nc3c(C(N)=O)cccc3[nH]2)CCCN1 [Veliparib] (first compound 0.4 µM, partner dose 1.4 µM) the figure was 90.7%; with `Cc1ccc(Nc2nccc(N(C)c3ccc4c(C)n(C)nc4c3)n2)cc1S(N)(=O)=O` [Pazopanib] + CN(c1ncccc1CNc1nc(Nc2ccc3c(c2)CC(=O)N3)ncc1C(F)(F)F)S(C)(=O)=O [PF562271] (first compound 0.4 µM, partner dose 0.08 µM), 76.6%.
`CC1(C)CCC(c2ccc(Cl)cc2)=C(CN2CCN(c3ccc(C(=O)NS(=O)(=O)c4ccc(N[C@H](CCN5CCOCC5)CSc5ccccc5)c(S(=O)(=O)C(F)(F)F)c4)cc3)CC2)C1` + CN1CCN(c2ccc3nc(-c4c(N)c5c(F)cccc5[nH]c4=O)[nH]c3c2)CC1 [Dovitinib] (first compound 0.4 µM, partner dose 0.1 µM) came in with a cell count of 74%.

Source of the values: the supplement of paper PMC4604168 (melanoma cell lines).
